Laboratory results from the supplement of paper PMC8728848.
Some of the results follow.

Tests used:
Experiment in all cases: glycan array binding signal (z-score within array); higher = stronger binding
Conditions in all cases: glycan notation: IUPAC condensed, linker removed
[1] = target: Fuc(a1-2)Gal
In short: (§1)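 From the Consortium for Functional Glycomics database, 3228 arrays were curated, keeping only those whose protein sequence was available. Binding is given as a within-array Z-score averaged across arrays sharing a protein sequence and across linkers. Negative Z-scores can be read as non-binding.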

[2] = target: Fuc(a1-2)Gal(b1-3)GalNAc
In short: as §1

[3] = target: Fuc(a1-2)Gal(b1-3)GalNAc(a1-3)[Fuc(a1-2)]Gal(b1-4)Glc
In short: as §1

[4] = target: Fuc(a1-2)Gal(b1-3)GalNAc(a1-3)[Fuc(a1-2)]Gal(b1-4)GlcNAc
In short: as §1

[5] = target: Fuc(a1-2)Gal(b1-3)GalNAc(b1-3)Gal
In short: as §1

[6] = target: Fuc(a1-2)Gal(b1-3)GalNAc(b1-3)Gal(a1-4)Gal(b1-4)Glc
In short: as §1

[7] = target: Fuc(a1-2)Gal(b1-3)GalNAc(b1-4)[Neu5Ac(a2-3)]Gal(b1-4)Glc
In short: as §1

[8] = target: Fuc(a1-2)Gal(b1-3)GlcNAc
In short: as §1

[9] = target: Fuc(a1-2)Gal(b1-3)GlcNAc(b1-2)Man(a1-3)[Fuc(a1-2)Gal(b1-3)GlcNAc(b1-2)Man(a1-6)]Man(b1-4)GlcNAc(b1-4)GlcNAc
In short: as §1

[10] = target: Fuc(a1-2)Gal(b1-3)GlcNAc(b1-2)Man(a1-3)[Fuc(a1-2)Gal(b1-3)GlcNAc(b1-2)Man(a1-6)]Man(b1-4)GlcNAc(b1-4)[Fuc(a1-6)]GlcNAc
In short: as §1

[11] = target: Fuc(a1-2)Gal(b1-3)GlcNAc(b1-3)Gal(b1-4)Glc
In short: as §1

[12] = target: Fuc(a1-2)Gal(b1-3)GlcNAc(b1-3)GalNAc
In short: as §1

[13] = target: Fuc(a1-2)Gal(b1-3)GlcNAc(b1-3)[Fuc(a1-2)Gal(b1-3)GlcNAc(b1-6)]GalNAc
In short: as §1

[14] = target: Fuc(a1-2)Gal(b1-3)GlcNAc(b1-3)[Gal(b1-4)GlcNAc(b1-6)]Gal(b1-4)Glc
In short: as §1

[15] = target: Fuc(a1-2)Gal(b1-3)GlcNAc(b1-3)[Neu5Ac(a2-6)Gal(b1-4)GlcNAc(b1-6)]Gal(b1-4)Glc
In short: as §1

[16] = target: Fuc(a1-2)Gal(b1-3)GlcNAc6S
In short: as §1

[17] = target: Fuc(a1-2)Gal(b1-3)[Fuc(a1-4)]GlcNAc
In short: as §1

[18] = target: Fuc(a1-2)Gal(b1-3)[Fuc(a1-4)]GlcNAc(b1-2)Man(a1-3)[Fuc(a1-2)Gal(b1-3)[Fuc(a1-4)]GlcNAc(b1-2)Man(a1-3)]Man(b1-4)GlcNAc(b1-4)GlcNAc
In short: as §1

[19] = target: Fuc(a1-2)Gal(b1-3)[Fuc(a1-4)]GlcNAc(b1-2)Man(a1-3)[Fuc(a1-2)Gal(b1-3)[Fuc(a1-4)]GlcNAc(b1-2)Man(a1-6)]Man(b1-4)GlcNAc(b1-4)[Fuc(a1-6)]GlcNAc(b1-4)[Fuc(a1-6)]GlcNAc
In short: as §1

[20] = target: Fuc(a1-2)Gal(b1-3)[Fuc(a1-4)]GlcNAc(b1-3)[Fuc(a1-3)[Gal(b1-4)]GlcNAc(b1-6)]Gal(b1-4)Glc
In short: as §1

[21] = target: Fuc(a1-2)Gal(b1-3)[Fuc(a1-4)]GlcNAc(b1-3)[Gal(b1-4)GlcNAc(b1-6)]Gal(b1-4)Glc
In short: as §1

[22] = target: Fuc(a1-2)Gal(b1-4)Fuc(a1-3)]GlcNAc(b1-2)Man(a1-3)[Fuc(a1-2)Gal(b1-4)[Fuc(a1-3)]GlcNAc(b1-2)Man(a1-6)]Man(b1-4)GlcNAc(b1-4)GlcNAc
In short: as §1

[23] = target: Fuc(a1-2)Gal(b1-4)Glc
In short: as §1

[24] = target: Fuc(a1-2)Gal(b1-4)Glc6S
In short: as §1

[25] = target: Fuc(a1-2)Gal(b1-4)GlcNAc
In short: as §1

[26] = target: Fuc(a1-2)Gal(b1-4)GlcNAc(b1-2)Man
In short: as §1

[27] = target: Fuc(a1-2)Gal(b1-4)GlcNAc(b1-2)Man(a1-3)[Fuc(a1-2)Gal(b1-4)GlcNAc(b1-2)Man(a1-6)]Man(b1-4)GlcNAc(b1-4)GlcNAc
In short: as §1

[28] = target: Fuc(a1-2)Gal(b1-4)GlcNAc(b1-2)Man(a1-3)[Fuc(a1-2)Gal(b1-4)GlcNAc(b1-2)Man(a1-6)]Man(b1-4)GlcNAc(b1-4)[Fuc(a1-6)]GlcNAc
In short: as §1

[29] = target: Fuc(a1-2)Gal(b1-4)GlcNAc(b1-2)[Fuc(a1-2)Gal(b1-4)GlcNAc(b1-4)]Man(a1-3)[Fuc(a1-2)Gal(b1-4)GlcNAc(b1-2)Man(a1-6)]Man(b1-4)GlcNAc(b1-4)GlcNAc
In short: as §1

[30] = target: Fuc(a1-2)Gal(b1-4)GlcNAc(b1-3)Gal(b1-4)GlcNAc
In short: as §1

B1: ABA (Agaricus bisporus), Q00022 (protein)
chain: MTYTISIRVYQTTPKGFFRPVERTNWKYANGGTWDEVRGEYVLTMGGSGTSGSLRFVSSDTDESFVATFGVHNYKRWCDIVTNLTNEQTALVINQEYYGVPIRDQARENQLTSYNVANAKGRRFAIEYTVTEGDNLKANLIIG
In the case of B1, the “glycan array binding signal (z-score)” value [1] is reported as -0.177, the “glycan array binding signal (z-score)” value [2] is reported as -0.205 and the “glycan array binding signal (z-score)” value [3] is reported as -0.201. For the same binder, the “glycan array binding signal (z-score)” value [4] was 0.475, the “glycan array binding signal (z-score)” value [5] was -0.2 and the “glycan array binding signal (z-score)” value [6] was -0.207. For the same binder, the “glycan array binding signal (z-score)” value [7] was -0.192, the “glycan array binding signal (z-score)” value [8] was -0.207 and the “glycan array binding signal (z-score)” value [9] was 0.984. For the same binder, the “glycan array binding signal (z-score)” value [10] was -0.085, the “glycan array binding signal (z-score)” value [11] was -0.21 and the “glycan array binding signal (z-score)” value [12] was -0.262. For the same binder, the “glycan array binding signal (z-score)” value [13] was -0.172, the “glycan array binding signal (z-score)” value [14] was -0.258 and the “glycan array binding signal (z-score)” value [15] was -0.276. The “glycan array binding signal (z-score)” value [16] was -0.174, the “glycan array binding signal (z-score)” value [17] was -0.176 and the “glycan array binding signal (z-score)” value [18] was 0.449. The “glycan array binding signal (z-score)” value [19] was -0.143, the “glycan array binding signal (z-score)” value [20] was -0.186 and the “glycan array binding signal (z-score)” value [21] was -0.223. The “glycan array binding signal (z-score)” value [22] was -0.209, the “glycan array binding signal (z-score)” value [23] was -0.118 and the “glycan array binding signal (z-score)” value [24] was -0.229. The “glycan array binding signal (z-score)” value [25] was -0.252, the “glycan array binding signal (z-score)” value [26] was -0.12 and the “glycan array binding signal (z-score)” value [27] was 0.091. For the same binder, the “glycan array binding signal (z-score)” value [28] was 0.523, the “glycan array binding signal (z-score)” value [29] was -0.048 and the “glycan array binding signal (z-score)” value [30] was -0.211.
